Measured values from paper PMC11960969, “Mdga2 deficiency leads to an aberrant activation of BDNF/TrkB signaling that underlies autism-relevant synaptic and behavioral changes in mice” (PLOS Biology, 2025).
Results are given in words; binding and its absence hold for the method and conditions named. For some assays here: Binding seen in cells or lysates may run through a third protein. Some entries that bind do so weakly or less than the wild type. For some assays here: Tags and fused reporters may be left off the sequences shown.

Amino acid sequences for entries named in this document (tags omitted). Residues count along the entry.
UniProt P15209, residues 32-821: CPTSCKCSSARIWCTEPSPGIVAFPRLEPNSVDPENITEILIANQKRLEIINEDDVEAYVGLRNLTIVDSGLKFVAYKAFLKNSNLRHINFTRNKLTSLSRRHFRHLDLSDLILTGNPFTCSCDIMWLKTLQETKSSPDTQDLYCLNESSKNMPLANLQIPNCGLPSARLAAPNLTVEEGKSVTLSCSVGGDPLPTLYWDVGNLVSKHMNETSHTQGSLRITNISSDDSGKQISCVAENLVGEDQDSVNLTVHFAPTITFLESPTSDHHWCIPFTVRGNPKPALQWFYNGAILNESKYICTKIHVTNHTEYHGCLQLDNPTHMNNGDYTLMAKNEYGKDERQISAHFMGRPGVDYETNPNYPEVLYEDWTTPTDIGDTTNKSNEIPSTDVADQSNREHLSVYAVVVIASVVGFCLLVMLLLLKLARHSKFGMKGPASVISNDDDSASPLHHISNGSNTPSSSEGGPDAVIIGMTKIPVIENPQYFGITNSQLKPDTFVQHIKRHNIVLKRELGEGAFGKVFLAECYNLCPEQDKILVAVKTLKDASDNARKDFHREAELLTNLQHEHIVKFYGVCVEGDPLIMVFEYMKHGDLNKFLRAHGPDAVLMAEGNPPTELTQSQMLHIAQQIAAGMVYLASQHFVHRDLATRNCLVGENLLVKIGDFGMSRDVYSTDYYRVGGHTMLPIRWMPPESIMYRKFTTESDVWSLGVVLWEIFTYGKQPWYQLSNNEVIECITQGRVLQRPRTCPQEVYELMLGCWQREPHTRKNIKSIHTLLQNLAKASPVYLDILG
UniProt Q99K10, residues 46-843: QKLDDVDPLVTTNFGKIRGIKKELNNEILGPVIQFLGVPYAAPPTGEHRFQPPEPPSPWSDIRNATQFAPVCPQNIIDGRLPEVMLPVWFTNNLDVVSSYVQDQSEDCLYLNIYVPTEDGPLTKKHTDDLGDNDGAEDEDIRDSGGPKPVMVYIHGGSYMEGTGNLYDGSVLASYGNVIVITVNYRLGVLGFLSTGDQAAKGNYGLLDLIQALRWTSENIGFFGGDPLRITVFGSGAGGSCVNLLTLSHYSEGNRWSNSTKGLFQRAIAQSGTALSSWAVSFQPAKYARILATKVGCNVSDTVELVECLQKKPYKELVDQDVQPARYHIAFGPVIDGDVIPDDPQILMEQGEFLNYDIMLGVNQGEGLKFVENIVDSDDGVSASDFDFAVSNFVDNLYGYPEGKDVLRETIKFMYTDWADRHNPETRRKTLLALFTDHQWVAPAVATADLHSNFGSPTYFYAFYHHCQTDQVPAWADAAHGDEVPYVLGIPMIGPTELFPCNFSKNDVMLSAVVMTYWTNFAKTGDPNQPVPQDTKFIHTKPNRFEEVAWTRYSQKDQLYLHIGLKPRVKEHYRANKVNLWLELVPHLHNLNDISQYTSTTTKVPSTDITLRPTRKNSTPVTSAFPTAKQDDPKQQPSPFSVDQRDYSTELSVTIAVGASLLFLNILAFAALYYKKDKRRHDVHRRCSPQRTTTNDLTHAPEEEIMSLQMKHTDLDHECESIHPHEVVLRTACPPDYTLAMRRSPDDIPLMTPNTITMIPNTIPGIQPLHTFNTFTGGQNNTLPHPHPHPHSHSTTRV
UniProt Q16620, residues 32-822: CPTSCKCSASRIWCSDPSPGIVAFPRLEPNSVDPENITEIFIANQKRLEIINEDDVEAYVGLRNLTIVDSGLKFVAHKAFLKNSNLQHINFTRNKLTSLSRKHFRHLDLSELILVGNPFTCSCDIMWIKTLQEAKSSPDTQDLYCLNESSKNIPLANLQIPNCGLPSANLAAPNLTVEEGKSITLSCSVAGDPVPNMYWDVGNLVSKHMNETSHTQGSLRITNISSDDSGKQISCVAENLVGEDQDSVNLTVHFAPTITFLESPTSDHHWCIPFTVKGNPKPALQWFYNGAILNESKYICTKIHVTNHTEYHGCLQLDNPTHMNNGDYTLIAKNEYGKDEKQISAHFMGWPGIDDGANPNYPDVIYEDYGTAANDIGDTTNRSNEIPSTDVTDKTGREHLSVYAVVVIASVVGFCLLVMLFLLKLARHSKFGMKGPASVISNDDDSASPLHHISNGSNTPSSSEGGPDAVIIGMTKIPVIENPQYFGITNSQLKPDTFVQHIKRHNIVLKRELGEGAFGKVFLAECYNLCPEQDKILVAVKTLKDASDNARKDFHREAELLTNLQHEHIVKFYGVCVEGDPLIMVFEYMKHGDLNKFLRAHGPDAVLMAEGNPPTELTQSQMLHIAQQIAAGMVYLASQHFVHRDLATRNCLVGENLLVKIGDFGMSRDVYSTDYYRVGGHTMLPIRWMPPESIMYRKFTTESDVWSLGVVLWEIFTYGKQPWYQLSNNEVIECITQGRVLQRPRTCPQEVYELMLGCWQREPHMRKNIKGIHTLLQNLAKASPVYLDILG

Assays:
[1] = target: T1, biotin-labeled MDGA2-P2 peptide (aa 812-833) (human); experiment: pull-down; 1 μg biotin-conjugated peptide injected bilaterally into the hippocampus of WT mice; 24 h later hippocampal lysates precipitated with avidin beads and immunoblotted for TrkB; only the target purified
T1 sequence (peptide, biotin (position not stated)): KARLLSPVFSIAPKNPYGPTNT

[2] = target: T2, biotin-labeled MDGA2-P1 peptide (aa 787-811) (human); experiment: as above
T2 sequence (peptide, biotin (position not stated)): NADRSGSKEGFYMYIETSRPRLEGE

[3] = target: T3, MDGA2 (MAM domain containing glycosylphosphatidylinositol anchor 2), endogenous mouse (mouse (endogenous in mouse brain)) (UniProt P60755); experiment: co-IP; WT mouse brain lysates, IP with an anti-MDGA2 antibody or control IgG, immunoblot
T3 sequence: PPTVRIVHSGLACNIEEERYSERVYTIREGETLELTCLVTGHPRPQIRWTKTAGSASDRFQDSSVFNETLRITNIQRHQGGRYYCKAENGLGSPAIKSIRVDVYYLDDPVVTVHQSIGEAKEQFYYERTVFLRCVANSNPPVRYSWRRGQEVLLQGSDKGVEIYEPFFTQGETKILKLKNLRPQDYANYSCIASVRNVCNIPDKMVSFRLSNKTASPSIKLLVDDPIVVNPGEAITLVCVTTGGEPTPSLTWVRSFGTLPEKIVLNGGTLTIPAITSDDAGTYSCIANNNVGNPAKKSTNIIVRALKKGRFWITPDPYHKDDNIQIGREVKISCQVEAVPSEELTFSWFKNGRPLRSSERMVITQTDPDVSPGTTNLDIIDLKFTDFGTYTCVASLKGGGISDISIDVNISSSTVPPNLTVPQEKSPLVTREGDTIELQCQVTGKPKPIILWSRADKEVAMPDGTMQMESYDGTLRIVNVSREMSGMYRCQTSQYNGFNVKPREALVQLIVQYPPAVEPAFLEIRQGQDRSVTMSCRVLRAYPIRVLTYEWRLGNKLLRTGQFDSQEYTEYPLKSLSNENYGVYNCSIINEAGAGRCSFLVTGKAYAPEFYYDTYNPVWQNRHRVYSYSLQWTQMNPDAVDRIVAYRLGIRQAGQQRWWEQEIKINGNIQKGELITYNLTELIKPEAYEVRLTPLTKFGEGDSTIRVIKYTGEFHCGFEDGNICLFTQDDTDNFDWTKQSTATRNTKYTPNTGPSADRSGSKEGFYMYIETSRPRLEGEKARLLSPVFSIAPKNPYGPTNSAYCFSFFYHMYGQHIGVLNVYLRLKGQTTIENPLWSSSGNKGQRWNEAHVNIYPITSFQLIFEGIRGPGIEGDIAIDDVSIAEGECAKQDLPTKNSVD

[4] = target: T4, GST-fused MDGA2-L1 (MDGA2 aa 746-786) (human) (UniProt Q7Z553); experiment: pull-down; purified human TrkB protein incubated with GST-fused MDGA2-L1, MDGA2-L2 or GST and pulled down with Glutathione Sepharose 4B; immunoblot; both purified
T4 sequence: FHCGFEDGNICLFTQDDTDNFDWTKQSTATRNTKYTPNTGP

Substance | binding [1] | binding [2] | binding [3] | binding [4]
TrkB (tyrosine kinase B receptor), endogenous mouse (from UniProt P15209 32-821) | binds | no binding | binds | 
neuroligin 1 (NLGN1), endogenous mouse (from UniProt Q99K10 46-843) |  |  | binds | 
recombinant TrkB protein (full-length human TrkB, His) (from UniProt Q16620 32-822) (receptor) |  |  |  | no binding
